PubChem BioAssay AID624171 (National Center for Advancing Translational Sciences (NCATS), 2012)
Out of some 410,000 compounds screened, about 1,200 (0.29%) were called active. This list was built around the results that the source calls inconclusive (neither active nor inactive); the mix of calls is not that of the screen. The call rests on the fitted dose curve; in most records, active means well fitted activation curve with a large enough effect; inconclusive means small, poorly fitted or top-dose-only effect; inactive means flat fitted curve, though single readings scatter. Potencies of inconclusive entries are doubtful fits and often do not repeat.

assay: qHTS of Nrf2 Activators; conditions: AREc32 ARE-luciferase reporter (MCF7-derived line), luminescence, 24 h; activation: at 46.1 µM (top of the series); further: nearly all actives have a fitted effect of over 65% in size; on activation: % of control where 0% means no effect
Method in brief: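 Nrf2 activation is followed as ARE-luciferase induction in the AREc32 line after one day of compound treatment; luminescence is read with Steady-Glo.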
Potency means the concentration at half of the fitted maximal effect; tags describe the fitted curve by direction and shape.

Potency, active:
O=C(Nc1nc2ccccc2s1)c1ccc([N+](=O)[O-])o1 3.55 µM, O=C(CSc1nnc(-c2ccco2)c(-c2ccco2)n1)Nc1ccccc1 12.6 µM, Cc1cc(O)c(NC(=O)c2ccco2)cc1C 12.6 µM, O=C(Nc1nnc(-c2ccccc2F)s1)C1CCCO1 (stereo not given) 3.16 µM, CC1CCCCC1NC(=O)NC(=O)CCl (stereo not given) 14.1 µM

Potency, inconclusive:
COc1cccc(-c2nc3ccccc3s2)c1O 6.31 µM [activator, full curve], COc1ccc(C(=O)N/N=C(\C)c2ccccn2)cc1OC 15.8 µM [activator, single point], O=c1c(-c2ccco2)[n+]([O-])c2ccccc2n1OCc1ccccc1[N+](=O)[O-] 0.562 µM [activator, full curve, poor fit], Cc1nnc2c3ccccc3nc(Nc3cccc(O)c3)n12 11.2 µM [activator, partial curve, poor fit], O=C(O)/C=C/C(=O)Nc1ccc(SC(F)(F)C(F)(F)C(F)(F)F)cc1 35.5 µM [activator, single point], O=C(c1ccc([N+](=O)[O-])o1)N1CCN(c2nc3ccc(F)cc3s2)CC1 2.51 µM [activator, partial curve, poor fit], CCN1C=C(Cc2ccc(F)cc2)C2=C(C1)C(c1ccc(F)cc1)C(C#N)=C(N)O2 (stereo not given) 28.2 µM [activator, single point], Cc1nn(-c2ccccc2Cl)c(Cl)c1/C=C(\C#N)C(N)=O 28.2 µM [activator, single point], c1ccc(-c2nnc3oc(-c4cccs4)nn23)cc1 12.6 µM [activator, single point], COC(=O)c1sccc1NC(=O)Nc1cccc(C)c1 14.1 µM [activator, single point], COc1ccc2c(c1)OC/C(=C/c1cccs1)C2=O 22.4 µM [activator, single point], COc1ccc(/C=C/C(=O)c2ccc(NS(=O)(=O)c3ccc(C)cc3)cc2)cc1O 22.4 µM [activator, single point], CC(C)(C)c1csc(NC(=O)CCS(=O)(=O)c2ccc(F)cc2)n1 7.08 µM [activator, partial curve, poor fit], C/C(=N\NC(=O)CNC(=O)C1COc2ccccc2O1)c1ccco1 (stereo not given) 11.2 µM [activator, partial curve, poor fit], Cc1cccc(/C(N)=N/OC(=O)c2ccoc2C)c1 17.8 µM [activator, single point], Cc1cc(C)cc(N(CC(=O)Nc2ccccc2)C2=NC3CS(=O)(=O)CC3S2)c1 (stereo not given) 31.6 µM [activator, single point], CC(/C=N/NC(=O)CN1CCN(Cc2ccc(Cl)cc2)CC1)=C\c1ccco1 14.1 µM [activator, partial curve, poor fit], Cc1cccc(-c2nc(=S)c3c(o2)CCCC3)c1 17.8 µM [activator, single point], COc1ccc(C2CC(=O)c3cnc(NC(=O)c4ccccc4OC)nc3C2)c(OC)c1 (stereo not given) 12.6 µM [activator, partial curve, poor fit], NC(=O)c1sc2nc(-c3ccco3)ccc2c1N 10 µM [activator, partial curve, poor fit], N#Cc1nc(-c2cccs2)oc1NCc1ccco1 14.1 µM [activator, partial curve, poor fit], O=C(CCCN1C(=O)/C(=C\c2cccs2)SC1=S)Nc1ccc(O)cc1 14.1 µM [activator, single point], CC(C)CN=c1cc(-c2ccccc2)oc2ccc(Cl)cc12 17.8 µM [activator, single point], Fc1ccc(OCc2nc(-c3cccs3)no2)cc1 22.4 µM [activator, single point], CCOc1cccc(-c2cc(=O)[nH][nH]2)c1 22.4 µM [activator, single point], O=C(Cc1nnc(NC(=O)c2ccccc2)s1)N/N=C/c1ccc(O)cc1 12.6 µM [activator, single point], O=C(c1ccco1)N1CCC(c2ccccc2)C1 (stereo not given) 15.8 µM [activator, single point], COc1ccc(C=C(C(C)=O)C(=O)c2ccccc2)cc1 28.2 µM [activator, single point], N#C/C(=C\c1ccncc1)c1nc2ccccc2[nH]1 17.8 µM [activator, single point], COc1ccccc1C(=O)NNC(=O)c1cccc(Cl)c1 3.55 µM [activator, partial curve, poor fit], Cc1ccc2c(c1)C(=C(C#N)C#N)C(=O)N2CCN1CCOCC1 20 µM [activator, single point], NC(=O)c1ccccc1NC(=O)c1ccc2ccccc2c1 2.24 µM [activator, full curve], O=c1cc(-c2ccccc2)oc2ccccc12 31.6 µM [activator, single point], CC[C@]1(C(=O)OC)[C@H]2C(=O)N(Cc3ccccc3)C(=O)[C@H]2[C@H]2CN=C(SCC(=O)c3ccccc3)N21 31.6 µM [activator, single point], CCCCCCN(C(=O)CCl)c1ccccc1 22.4 µM [activator, single point], CNc1nnc(Sc2ncccc2[N+](=O)[O-])s1 17.8 µM [activator, single point], CCOC(=O)N1C(=O)[C@](c2ccc(Cl)cc2)(C(C)C)N1C(=O)OCC 20 µM [activator, single point], Cc1ccc(-c2n[nH]c(=S)n2/N=C/C=C\c2ccccc2[N+](=O)[O-])cc1 17.8 µM [activator, single point], Cc1ccc(S(=O)(=O)C=CS(=O)(=O)c2ccc(C)cc2)cc1 3.55 µM [activator, full curve], O=c1cc(-c2ccccc2)oc2ccc(Br)cc12 2.51 µM [activator, full curve, poor fit], COc1ccc(C)c2sc(NC(=O)CCS(=O)(=O)c3ccccc3)nc12 2.82 µM [activator, full curve, poor fit]

Potency, inactive:
COc1ccc(-n2c3c(cc(C(=O)NCc4ccco4)c2=O)C(=O)CC(C)(C)C3)cc1, CCOC(=O)c1cc(-c2ccccc2)nn1Cc1cc(CC)no1, COCCNC(=O)Cn1nc(Cc2ccncc2)c2ccccc2c1=O, COc1cccc(N2CCN(c3c4c(nc5ncnn35)CCC4)CC2)c1, Cc1ccccc1CN1CCNC(=O)C1CC(=O)O (stereo not given), Cc1c(/C=N/NC(=O)c2ccc(O)cc2)c2ccccn2c1C(=O)c1ccc(F)cc1, CCN(CC)c1ccc(NC(=O)c2cc3c(=O)n4cccc(C)c4nc3n2C)c(C)c1, COc1ccccc1CNC(=O)c1cc2cc(C)ccc2n1C, Cc1ccc(C)c(NC(=O)COc2coc(CN3CCc4ccccc4C3)cc2=O)c1, CCCN(C(=O)c1sc2nc3n(c(=O)c2c1C)CCCC3)c1ccccc1C, COc1ccc(/C(N)=N/OC(=O)C2CCCCC2)cc1OC, NNC(=O)c1[nH]c2ccc(Cl)cc2c1-c1ccccc1, COc1ccc(C2=CC(=O)C[C@H](c3ccc(F)cc3)C2)c(OC)c1, CC(=O)c1cccc(NC(=O)c2ccc(CN3CCc4ccccc4C3)cc2)c1, O=C(c1cc2nc(-c3cccs3)cc(C(F)(F)Cl)n2n1)N1CCCc2ccccc21, CCN(C(=O)c1nn(-c2ccc(C)cc2)c(=O)c2c1c1ccccc1n2C)c1ccc(F)cc1, Cc1sc2ccc3sccc3c2[n+]1C, COc1cccc(/C=C2\SC(=O)N(CCC(=O)NNC(=O)c3cccc(Cl)c3)C2=O)c1, CC(=O)n1c(=O)c2ccccc2c(=O)n1-c1ccccc1, CN(C(=O)C1CCC(=O)N(Cc2cccc(F)c2)C1)C1CCCCC1 (stereo not given), COc1cccc(N2CC(NC(=O)COc3ccccc3F)CC2=O)c1 (stereo not given), Cc1cc2oc(C(=O)N(Cc3ccc(N(C)C)cc3)Cc3ccco3)c(C)c2cc1Cl, Cc1nc2cc(-c3cccc(F)c3)nn2c(C)c1CCC(=O)NC(C)c1ccccc1 (stereo not given), NC(COCc1ccccc1)c1csc(NC(=O)Nc2cccc(C(F)(F)F)c2)n1 (stereo not given), NC(=O)c1ccccc1N/C=C/C(=O)c1ccccc1, CCC(=O)Nc1c(S(=O)(=O)c2ccc(C)cc2)c2nc3ccccc3nc2n1C(C)c1ccccc1 (stereo not given), CCOc1ccc(-n2cc(-c3ccccc3)c3c(NC4CCCC4)ncnc32)cc1, CCc1cccc(CC)c1NC(=O)c1c(C)oc2ccc(O)c(CN3CCCC3)c12

activation, inactive:
COc1ccc(-c2csc(N(CCCN(C)C)C(=O)c3ccccc3C)n2)cc1 -0.55% [at 9.22 µM]
